From paper PMC12136788
The list shows a part of the results.

T1: UNK ZnF1-3 (human, UniProt Q9C0B0 31-174)
T1 sequence: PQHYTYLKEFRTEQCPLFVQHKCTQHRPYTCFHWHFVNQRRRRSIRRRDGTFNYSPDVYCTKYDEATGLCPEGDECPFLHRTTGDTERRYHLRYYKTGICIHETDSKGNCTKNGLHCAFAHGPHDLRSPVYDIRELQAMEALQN

B1: chr7:141450121:141450122:+_ENSG00000106028_ENST00000265304|hu_mus|hu_hu_hu_mus_True|98_108 (ssRNA)
RNA: GGGAGUUCUACAGUCCGACGAUCUCAUCCUUUCUACUCCUUCUCUUUUGUCUGGUCACUCAGAAAUAUAAUGUUAUCAGCUAUGAUUGUUGUUGCUUGCCGCCUCACAUUGUUUUUAUCCAUGUACUCGCCAUAGUCCACUUUCAACAGAGGAUUGAGCAUCA
B2: 5812188_5812979_1080_CDS_ENSG00000099219_ENST00000339450|human|control|control (ssRNA)
RNA: GGGAGUUCUACAGUCCGACGAUCUCCAUUCUCAAUAAAAGCUAAGUCUAUUCCUGGAAUGUUCCCAAAAUCCCUGUAGAUACGAAAGUCAGUAUCUGAAGGAAUGAUUCCACUCUGAAAAACCUCCUGAGCCACCACAGAAGCCAACAGAGGAUUGAGCAUCA
B3: chr5:37680062:37680063:+_ENSMUSG00000029121_ENSMUST00000031004|mus_hu|FALSE|FALSE (ssRNA)
RNA: GGGAGUUCUACAGUCCGACGAUCUUUGGGUGUAGCUGGUACCUCGUACACAGGACCGUCAUACAUGCCCCUGGAAACCCCUUGCAAUCCAAAAACCUUAUUCCUGAUUUUGACGCGCUGGUACAGGUGCUCCGGGAACGCCUUCAACAGAGGAUUGAGCAUCA
B4: 109148981_109149101_239_3pUTR_ENSMUSG00000028557_ENSMUST00000030284|mouse|control|control (ssRNA)
RNA: GGGAGUUCUACAGUCCGACGAUCCCGGCGCCACCGAGGGGCCGCUCAUGCCAGCCCCCGGGACAGGGGGCGCGAGGCUAGGCCGCGGGCUGCGCCGGGGUCGCGUCUGGAACCUGAGGGGGGCGGGGGCGGGAAGACUGAGCGCAACAGAGGAUUGAGCAUCA
B5: chr14:63888807:63888808:-_ENSG00000154001_ENST00000337537|hu_mus|FALSE|FALSE (ssRNA)
RNA: GGGAGUUCUACAGUCCGACGAUCUUCAUUGCUGUCACUAGGAGGGAGAGUUCUGAAUAUAUUGCAAGAUACCAUUCUAACUACUUCAGGGUAAGUCUGCUCUGUCAGACAGCCUCUGCUUAUUGUAAUGUAGUCCACCAGUUCCAACAGAGGAUUGAGCAUCA
B6: 128976402_128976621_833_CDS_ENSG00000181789_ENST00000314797|human|control|control (ssRNA)
RNA: GGGAGUUCUACAGUCCGACGAUCGUGCUUGUUGCGCAAGCAGCUCUCGAUGAAGUCAAACAGUGGGCUGUCACGGCUGCCAUCCUCCUCUUCCAGCUGCUUGCUGGCCACCCGGAUCAUCAUGCAGUAGGCAAAGGGAGACUUCAACAGAGGAUUGAGCAUCA
B7: chr4:103717771:103717772:-_ENSG00000109332_ENST00000394803|hu_hu|FALSE|FALSE (ssRNA)
RNA: GGGAGUUCUACAGUCCGACGAUCUCCAGGCAGCUAACUCAUUGGUUUAUGCAACUUUAUUGAAGAAAAAUAAAUCAAUUACUAGCAGAGCUAUUAGUUGAUCACUCAUCCAUUGACAACUUGCAUCAUUUAUUCAGUGCUAUACAACAGAGGAUUGAGCAUCA
B8: chr13:55348081:55348082:+_ENSMUSG00000021488_ENSMUST00000099490|mus_hu|FALSE|FALSE (ssRNA)
RNA: GGGAGUUCUACAGUCCGACGAUCAUCCACUUUCCCACUUUUAGAAAUGCUGGCCAAAGGAGAGCCUUUGGUAUCAGAAGAGCAGCAUUUCAAACUGCACUCCUCAUUUAUAACUGGGGGUUCUGCCAUAACUGGAUUUUCUUUCAACAGAGGAUUGAGCAUCA
B9: 37429575_37429695_12100_3pUTR_ENSMUSG00000026915_ENSMUST00000028279|mouse|control|control (ssRNA)
RNA: GGGAGUUCUACAGUCCGACGAUCCUGCACUUUCUUCUGCUCACAGAUGUCCCUGCCAAGGACCCUUCCAGAAUCCCCUCAUUGCUCUGUGCUGUCCCAUCUAAAGGCCUGCGGACUUGGACCAGGGCUACUGCAAUUGUGACUCAACAGAGGAUUGAGCAUCA
B10: chr3:193353255:193353256:+_ENSG00000198836_ENST00000392438|hu_hu|motif|central (ssRNA)
RNA: GGGAGUUCUACAGUCCGACGAUCAAUCAAAGAUUUCUUAAGCUUUCUAUGAUGAAUGCCUUUGUCAUCUUUCUGCAAUACGGAUUUUCUCAAUUCUUUGUUCUCCUUUUCUAAUCGUUCCAAGAUUCUCUGAUACUUCAACUGCAACAGAGGAUUGAGCAUCA
B11: chr1:52223104:52223105:-_ENSMUSG00000026103_ENSMUST00000114513|mus_mus|FALSE|FALSE (ssRNA)
RNA: GGGAGUUCUACAGUCCGACGAUCAUCAUCAGAAUCCCCUUGAGGUGUGUACUGAACUUGGUAUUCCUGAAGGAUUUUAAAAACAUCAUGGUGUCCAAAGUGUAGUGCUUCAUCCAUGGGGGUAUUAUUCCACCUGUCCUUGGGCAACAGAGGAUUGAGCAUCA
B12: chr1:220276048:220276049:+_ENSG00000067704_ENST00000302637|hu_hu|hu_hu_hu_mus_True|8_98 (ssRNA)
RNA: GGGAGUUCUACAGUCCGACGAUCGCAAAUUGCCUGGUUGGCUGGAAUUGUCCAAGGCUGGGUGGUCCAAACUAAAACGCUAACAGGGGAUGAGGCAUCUGUAAGAGACUCCAACUUCGGAGGAGGUUUUAAGAGAGGGAAUCUCAACAGAGGAUUGAGCAUCA
B13: chr1:93301758:93301759:+_ENSG00000122406_ENST00000370321|hu_mus|FALSE|FALSE (ssRNA)
RNA: GGGAGUUCUACAGUCCGACGAUCGUAUUCACCUCCAUUCACCUCCACUUGGCCUUCAUAGAUCUUGUCCAUGCCAAACCUAUUCAGAAGCCUGCGGGCCAGCAGCAGGCCAGUGCAAUAGGCUGCAGCAUAAUUUGUCAGGCCCAACAGAGGAUUGAGCAUCA
B14: chr12:80258887:80258888:-_ENSMUSG00000021124_ENSMUST00000055262|mus_mus|FALSE|FALSE (ssRNA)
RNA: GGGAGUUCUACAGUCCGACGAUCAUUUACCAGUCUGCUCUUAGUACGUUCCAACUGGUCUCGUUGCUCCCCCAACUCUUCUAUGAUUUCUGUACCAAUUUGAUCAGUUUCUGUGGCAAUCCGAUGAGAACGCUCAAUGCUUUGCAACAGAGGAUUGAGCAUCA
B15: chr5:145543945:145543946:-_ENSG00000133706_ENST00000545646|hu_hu|hu_hu_hu_mus_True|8_108 (ssRNA)
RNA: GGGAGUUCUACAGUCCGACGAUCCUGAAUAGCCAGUGGUGGGAAAUAAUCAAGCCAGUGCUCUGCUUCAGAAAACUUCACUAUGUCGUCAUCAGAGAGCCCAAGGGAUUUCAUAAUGUCCCACUGGUAUUUAGAAGAUCCUGCCAACAGAGGAUUGAGCAUCA
B16: chr2:207631934:207631935:+_ENSG00000118246_ENST00000403094|hu_hu|FALSE|FALSE (ssRNA)
RNA: GGGAGUUCUACAGUCCGACGAUCCUUCUGGUCAUCAGACAGUCUUUUGGCAAUUGUCCACAUUGCUGUGAAAUAGUUGCUACUAGGAAAUGUGGGCGCUUUUGAAAAUGCAUCUAACACAUCACUCAGGGAAUUACAUUCCUCCAACAGAGGAUUGAGCAUCA
B17: chr15:76912013:76912014:-_ENSMUSG00000033565_ENSMUST00000166610|mus_mus|motif|central (ssRNA)
RNA: GGGAGUUCUACAGUCCGACGAUCGCUCUCAGUGCUCACCCUGAAAUCCAACGACCUUUGCAUAAAAAGCCAACUCCAUCGGGUCUUCCUUGGAAAAGGGCCUGAGGAAGUGGCAUCGGAGAGUGUCCUUGUCCACGCAGCAGACAACAGAGGAUUGAGCAUCA
B18: chr2:157388114:157388115:+_ENSMUSG00000067786_ENSMUST00000109526|mus_hu|FALSE|FALSE (ssRNA)
RNA: GGGAGUUCUACAGUCCGACGAUCUUGUAGAGGUGGUCCCUGUCCUCCAGGAGCUUACAAUCUAGCUGGGGAGACACAACUAAUGCACACUUAAACAAUCAGUACAAUUAGCGAUUACCACAAUAUUGACCACAACUGCAUGAGCAACAGAGGAUUGAGCAUCA
B19: 102547537_102547657_768_3pUTR_ENSMUSG00000020925_ENSMUST00000092569|mouse|control|control (ssRNA)
RNA: GGGAGUUCUACAGUCCGACGAUCGAAAUUUUGGAAAAUACAUUAGUCUCAGUUCUCUUAAAUACACAGACACACAAUUCAUGGGUGGAAGGAGCAGAGUGGGCCAAGGUUAUCGCUUCCGUUCGCCUUUCUGUGUCCUUUUCUCAACAGAGGAUUGAGCAUCA
B20: 102335738_102335858_654_3pUTR_ENSMUSG00000023050_ENSMUST00000169377|mouse|control|control (ssRNA)
RNA: GGGAGUUCUACAGUCCGACGAUCAAAGGCUCUGGGGGAGGCUCUCCACCUGGGGAGGGGCUGGGUCCUCCUCCACCCUGCCCACCGAGAGGCACAACAUCUCGAAGUACACAUUGGGUGGGCGUCAGGUCUUUCUCGGGGGUGCAACAGAGGAUUGAGCAUCA
B21: chr2:120799606:120799607:+_ENSG00000115109_ENST00000263713|hu_hu|FALSE|FALSE (ssRNA)
RNA: GGGAGUUCUACAGUCCGACGAUCGUACAUAAUCUGAUCAAACAACUCUUGUCCUUUGGCUUUUUUUGGCAAGUCCACACUAACAUCAGUACCAUCCAGAAGGGACACCCGACACGUGAUGAUGGACUUAGAAUCUCCAGCUGCCAACAGAGGAUUGAGCAUCA
B22: chr3:176740097:176740098:-_ENSG00000177565_ENST00000430069|hu_mus|hu_hu_hu_mus_True|18_38 (ssRNA)
RNA: GGGAGUUCUACAGUCCGACGAUCUGUUUUGUAUACCACAAAAGGAGGCACUUUCAGUAUCUGCAAAAGGUGUUUAGUCCUAAAACAUACUCACCUAGAGAAUAAUUCAGGAAAACAUCAAUACAAUCUCUAAGACCUACUCCACAACAGAGGAUUGAGCAUCA

Target: T1, UNK ZnF1-3
Assay: nsRBNS (natural sequence RNA bind-n-seq); RBNS binding buffer (assumed for nsRBNS): 25 mM Tris pH 7.5, 150 mM KCl, 3 mM MgCl2, 0.01% Triton X-100, 500 ug/ml BSA, 20 U/ml SUPERase-In, 4 C; UNK is unkempt and MSI1 is Musashi-1; names of the RNAs are library labels; protein concentration not given here; high values mean tight binding

Going from B1 to B2, the binding signal rises from 0.388 enrichment R to 1.41 enrichment R.

First: B3
Second: B4
The binding signal of the first is higher: 0.759 enrichment R for the first, 0.694 enrichment R for the second.

Compared with B5, B6 is lower in binding signal: 0.865 enrichment R for the first, 0.569 enrichment R for the second.

Compared with B7, B8 is lower in binding signal: 0.774 enrichment R for the first, 0.764 enrichment R for the second.

First: B9
Second: B10
The binding signal of the first is higher: 0.898 enrichment R for the first, 0.445 enrichment R for the second.

Compared with B11, B12 is higher in binding signal: 1.15 enrichment R for the first, 2.09 enrichment R for the second.

Going from B13 to B14, the binding signal falls from 0.905 enrichment R to 0.591 enrichment R.

Going from B15 to B16, the binding signal falls from 0.925 enrichment R to 0.852 enrichment R.

First: B17
Second: B18
The binding signal of the first is lower: 1.1 enrichment R for the first, 1.6 enrichment R for the second.

First: B19
Second: B20
The binding signal of the first is higher: 0.781 enrichment R for the first, 0.554 enrichment R for the second.

First: B21
Second: B22
The binding signal of the first is higher: 1.12 enrichment R for the first, 0.604 enrichment R for the second.
